The chains are these.
B1: Caulobacter ParB omega fusion; a variant is named by its letters at X, in order, B8GW30 (parent)
chain: MESVVVGEPGMSEGRRGLGRGLSALLGEVDAAPAQAPGEQLGGSREAPIEILQRNPDQPRRTFREEDLEDLSNSIREKGVLQPILVRPSPDTAGEYQIVAGERAWRAAQRAGLKTVPIMVRELDDLAVLEIGIIENVQRADLNVLEEALSYKVLMEKFERTQENIAQTIGKSXSHVANXMRLLXLPDEVQSYLVSGELTAXHARAIAAAADPVALAKQIIEGGLSVRETEALARKAPNLSAGKSKGGRPPRVKDTDTQALESDLSSVLGLDVSIDHRGSTGTLTITYATLEQLDDLCNRLTRGI

Whole data set: some 81,000 sequences, median “one-hybrid fitness for binding parS DNA” near -0.17, cut for the highest 2% near 0.51. The list shows a part of the results.

Variants of B1 are the subject of this assay. The assay is described as follows: one-hybrid fitness for binding parS DNA (scaled: cognate 1, non-cognate 0); higher = stronger binding. To be noted: with parS DNA site. In outline:
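Bacterial one-hybrid selection in E. coli USO rpoZ- hisB- pyrF- with a HIS3 reporter carrying the site 19 bp from the promoter, screening Caulobacter ParB libraries with four specificity codons randomised (NNS). Cells grew 48 hours at 37°C on M9-minus-histidine plus 0.1 mM IPTG and 5 mM 3-AT. Plasmids before and after selection were Illumina-sequenced, three replicate libraries pooled, and variants under 10 reads dropped. Fitness is the log change in variant-to-wild-type read ratio, rescaled to cognate 1, non-cognate 0.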
For the variant QGEW, the “one-hybrid fitness for binding parS DNA” value is not above 0.2. As for RSSR, the figure is not above 0.2; as for SRVD, not above 0.2.

Take LNDR: the “one-hybrid fitness for binding parS DNA” value was not above 0.2.

Take WTVV: the “one-hybrid fitness for binding parS DNA” value was not above 0.2. QHST: the “one-hybrid fitness for binding parS DNA” value is not above 0.2. As for LKAS, the figure is not above 0.2; as for MKNS, not above 0.2; as for STGR, not above 0.2. In the case of DPQL, the “one-hybrid fitness for binding parS DNA” value is not above 0.2. Then SMSM, with not above 0.2. For the variant QINN, the “one-hybrid fitness for binding parS DNA” value is not above 0.2. As to FTTP, the “one-hybrid fitness for binding parS DNA” value is not above 0.2. As for EQMS, the figure is not above 0.2; as for WPMR, not above 0.2. Take QRSA: the “one-hybrid fitness for binding parS DNA” value is not above 0.2.

Regarding CSRN, the “one-hybrid fitness for binding parS DNA” value was not above 0.2.

For YPRG, the “one-hybrid fitness for binding parS DNA” value is not above 0.2. Then YAIT, with not above 0.2; and TELI, with not above 0.2. Then ETQK, with not above 0.2; and RHVK, with not above 0.2; and ESNT, with not above 0.2. As for QGLA, the figure is not above 0.2; as for NQQF, not above 0.2.

Regarding RRQN, the “one-hybrid fitness for binding parS DNA” value was 0.614. Then IERV, with not above 0.2; and PNPG, with not above 0.2. Then CERG, with not above 0.2; and RATP, with not above 0.2. As for TKNN, the figure is not above 0.2; as for QYCQ, not above 0.2; as for AWLC, not above 0.2. On to FLDC, for which the “one-hybrid fitness for binding parS DNA” value is not above 0.2. Consider CPRL, for which the “one-hybrid fitness for binding parS DNA” value is not above 0.2. As for VGFI, the figure is not above 0.2; as for YTFV, not above 0.2. Then PYYG, with not above 0.2; and GEGR, with not above 0.2. Then HITV, with not above 0.2. Take PTVH: the “one-hybrid fitness for binding parS DNA” value is not above 0.2. Regarding CFYC, the “one-hybrid fitness for binding parS DNA” value is not above 0.2. Then NMKT, with not above 0.2. As for DNPS, the figure is not above 0.2. Then LSNE, with not above 0.2; and PNDR, with not above 0.2.

For the variant HHFC, the “one-hybrid fitness for binding parS DNA” value is not above 0.2. Then RAFC, with 0.925; and MGNR, with not above 0.2.

As for RGGG, the “one-hybrid fitness for binding parS DNA” value was 0.64.

Consider KRDH, for which the “one-hybrid fitness for binding parS DNA” value is not above 0.2. Then ANLQ, with not above 0.2. Then QIYS, with not above 0.2.

As for TEAC, the “one-hybrid fitness for binding parS DNA” value is not above 0.2. Then RCYD, with not above 0.2; and SQDS, with not above 0.2. With LVMQ, the “one-hybrid fitness for binding parS DNA” value is not above 0.2. Then LHGV, with not above 0.2; and PDFW, with not above 0.2.

As to SMGG, the “one-hybrid fitness for binding parS DNA” value was not above 0.2.

As to LCPV, the “one-hybrid fitness for binding parS DNA” value is not above 0.2. VSFY: the “one-hybrid fitness for binding parS DNA” value is not above 0.2. Then CRWT, with not above 0.2.

With LAVA, the “one-hybrid fitness for binding parS DNA” value is not above 0.2. As for FNPY, the “one-hybrid fitness for binding parS DNA” value is not above 0.2. Then AMVE, with not above 0.2.

As for TDRV, the “one-hybrid fitness for binding parS DNA” value was not above 0.2. Turning to AWYC, the “one-hybrid fitness for binding parS DNA” value was not above 0.2. As for RVLK, the figure is not above 0.2. As to CIGG, the “one-hybrid fitness for binding parS DNA” value is not above 0.2. Then VNIS, with not above 0.2. Then TYTC, with not above 0.2; and VLPR, with not above 0.2. Then HESD, with not above 0.2; and QQRW, with not above 0.2; and FCTA, with not above 0.2. As to IFKS, the “one-hybrid fitness for binding parS DNA” value is not above 0.2. As for WSAE, the figure is not above 0.2; as for DCGV, not above 0.2.

Regarding RDAM, the “one-hybrid fitness for binding parS DNA” value was not above 0.2.

For the variant EAWA, the “one-hybrid fitness for binding parS DNA” value was not above 0.2. In the case of VPTQ, the “one-hybrid fitness for binding parS DNA” value is not above 0.2.

In the case of CETG, the “one-hybrid fitness for binding parS DNA” value was not above 0.2. Then HEGS, with not above 0.2; and QAHH, with not above 0.2; and GNST, with not above 0.2. As for DVRN, the figure is not above 0.2; as for LNDL, not above 0.2; as for MSCS, not above 0.2. For WAKR, the “one-hybrid fitness for binding parS DNA” value is not above 0.2.

Regarding LNGY, the “one-hybrid fitness for binding parS DNA” value is not above 0.2. Then WRQP, with not above 0.2. Then WCKS, with not above 0.2; and IPTC, with not above 0.2; and CRLV, with not above 0.2.

As to DIEC, the “one-hybrid fitness for binding parS DNA” value is not above 0.2. Turning to FMLS, the “one-hybrid fitness for binding parS DNA” value is not above 0.2.

Take LKTQ: the “one-hybrid fitness for binding parS DNA” value was not above 0.2.

Values taken from a collection of fitness landscapes (doi:10.1016/j.celrep.2020.107928).
